± gives the standard deviation of the averaged measurements. Some of the results follow.
Each sequence was assayed on PfAP2-I AP2 domain 3 (GST-tagged) (assay: gcPBM binding intensity (ln(normalized median fluorescence intensity)); higher = stronger DNA binding).
In short: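 Plasmodium falciparum DNA-binding domains carrying a GST tag were expressed in E. coli and applied for 1 h, at about 25 μg on average, to an Agilent 4 × 180k array. The array held primer-extended double-stranded 36-bp intergenic genomic probes together with negative controls, and binding took place in 1× PBS with 1% milk, 0.2 mg/ml BSA, 0.5% salmon testes DNA and 0.03% Triton X-100. An Alexa488 anti-GST antibody detected bound protein, and the array was scanned at 488 nm. Binding intensity is taken as the highest Masliner-normalised natural-log median intensity across replicate spots of either probe orientation.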

Row | Sequence | gcPBM binding intensity (ln)
1 | TACATATTTACTATCACACACACGATATAAATAAAT [CACACA_site6701] | 7.8 ± 0.42
2 | TATTTAATGTGATACTTATATTATTTTATGATTAAA [GTGCAC_negctrl_site25] | 7.47 ± 0.42
3 | TATACATACTCACCCACACACAAAAAAAAAAAAAAA [CACACA_site862] | 8.08 ± 0.4
4 | TATATAAGAATTTTTACACACATGAAAATGTAGATA [CACACA_site3735] | 7.46 ± 0.36
5 | ATAATATATATATTAACACACATCCTTTTATGTATA [CACACA_site1203] | 7.87 ± 0.44
6 | TTATAATAATTTTATGCACACAGAAAAATACAAGGT [CACACA_site9169] | 9.66 ± 0.085
7 | GAACCGTGCAAATGTTGTACACTTTAAAAATATTCT [XGTACX_site4488] | 9.96 ± 0.3
8 | ATATGTGTGTAGTGTTCAATTATATTGATGTGAAGG [TGCATGCA_negctrl_site462] | 8.12 ± 0.48
9 | AAAACGAAAATTTGGAAACCAAAGGAAAAACATAAT [GTGCAC_negctrl_site709] | 7.97 ± 0.81
10 | TACATATAGAAACACACACACATATATATATATATA [CACACA_site1300] | 9.47 ± 0.72
11 | TAGGAGCCTAGACACACACACAAAAAAAAAAAAAAA [CACACA_site6911] | 7.8 ± 0.62
12 | AAAAAGGTTATTGGTACACACATATGTATATATATA [CACACA_site552] | 8.93 ± 0.35
13 | CCTCCATTAGATACTTGTACATAAAAGTTTTGATTG [XGTACX_site7428] | 7.68 ± 0.37
14 | AATCATAAAATCATATGTACACATTTTTCCTATGAT [XGTACX_site8799] | 7.89 ± 0.4
15 | AGACTTTGTACAAACACACACATGAACACAATATTA [CACACA_site1360] | 8.07 ± 0.47
16 | AAAAAAAAAAAATAATAAATAAATAAAAATAAATGA [CACACA_negctrl_site1623] | 7.5 ± 0.38
17 | ATTTTATTAATTTGGTGTACTTAATTTATATTTTTC [XGTACX_site4947] | 7.88 ± 0.22
18 | ATGTTGCTCATATGAGTGCACGTTTCATTTCAGTTT [GTGCAC_site9865] | 10.1 ± 0.11
19 | GTGTATTTATGTTATACACACAAAAATATTTTGTAT [CACACA_site4305] | 8.12 ± 0.4
20 | AATGTAGGTTTATTTACACACAAATATAGATATATA [CACACA_site6825] | 7.58 ± 0.53
21 | ATATTTAAAAAAGAGTGTACTCATCTCTTTTAAAAA [XGTACX_site1160] | 7.5 ± 0.4
22 | AATTTATATAATTTTGTGCACAATATTCATGTATAT | 11 ± 0.14
23 | CTATTTCGTATATATAGTACATATTATAACATACTA [XGTACX_site978] | 8.12 ± 0.42

Row | Sequence | gcPBM binding intensity (ln)
24 | ACAAAATAAAAACACACACACAAACACAAAAAAATA [CACACA_site3390] | 7.99 ± 0.042
25 | AGAAGGTAAAAACACACACACACATACAAAAAAAAA [CACACA_site3767] | 8.28 ± 0.53
26 | TATATATACAGACACATACACACAAATAAAAAAACA [CACACA_site3413] | 7.86 ± 0.35
27 | AGCTCTTGTCATTTTGCACACACACCGGTATAGGTT [CACACA_site5654] | 9.63 ± 0.18
28 | ATAATTTATATCATTACACACATTTTTTATATTTTT [CACACA_site3450] | 7.74 ± 0.64
29 | TTTTTGAATGTTTGCACACAAATCTCATAATTTTAG [CACACA_site357] | 8.64 ± 0.33
30 | TAGTTACATAAAATATGTACGTATAATTTTTTTATT [XGTACX_site3847] | 7.67 ± 0.32
31 | TTTATTAAATATATATGTACATATCAAAATGTATAA [XGTACX_site3181] | 7.89 ± 0.35
32 | TTTTTTTTCTATTGAGCACACATATCACGATTAGTA [CACACA_site7992] | 8.44 ± 0.45
33 | GTTAAACATCTTCTGTGATATGTTAGAATATTATTT [CACACA_negctrl_site687] | 7.45 ± 0.62
34 | TATTTCACAAACCTTACATGCGGTTTATTTATATAT [TGCATGCA_site123] | 7.92 ± 0.6
35 | TGTTCTAATATTTGTTGTACGTTTACGTTTCTCTCT [XGTACX_site18] | 7.58 ± 0.47
36 | AACATTTTAAAATAATGTACTTGAAAAAAAAACTAC [XGTACX_site8894] | 7.99 ± 0.51
37 | TATTTAAGAGTATGAACACACATCATACCCATATAA [CACACA_site5911] | 7.5 ± 0.45
38 | CATATAAATAAATATACATGCATACATACATATATA [TGCATGCA_site713] | 7.75 ± 0.54
39 | TTAATTTATGTTAATGGTACGTAAATGCATTTATTT [XGTACX_site3002] | 7.89 ± 0.4
40 | ATTTAACCAAATAATATATTTAAAAAATAGTCACAT [CACACA_negctrl_site274] | 7.71 ± 0.56
41 | TTTTATAATTTGAGAACATGCAACATAAATATAAAG [TGCATGCA_site965] | 8.21 ± 0.59
42 | TATAATATATGAAAAAGTACAAATATTTCGATGGTC [XGTACX_site129] | 8 ± 0.7
43 | TAACCAAAAAAAAATATTTAAAATAAATATATATAT [CACACA_negctrl_site1516] | 9.05 ± 0.33
44 | ATAACATACATAACAACACACAATATTTATAGGTAT [CACACA_site6243] | 7.84 ± 0.57
45 | TATTTTCTCTTAAAAAGTACTCATATATACATTTAT [XGTACX_site7748] | 7.68 ± 0.3
46 | TTTAGTTCATACTATGCACACTACGTATATTTTTAA [CACACA_site5484] | 8.88 ± 0.16

Row | Sequence | gcPBM binding intensity (ln)
47 | ATTAATAAGAAGAAAAGTACAAAACAAAAAGATATA [XGTACX_site7473] | 8.02 ± 0.79
48 | CGTTATATATTTTATAGTACTTTTTGTAAATTTTTT [XGTACX_site7682] | 7.55 ± 0.56
49 | TTACATATTTTCATTTGTACATATTCATTTTTTTTC [XGTACX_site6988] | 7.75 ± 0.57
50 | AAATAACCCACGTGCATGCACTTCAATAACTGAACT | 11.3 ± 0.14
51 | TAAAAAAGAAAAAGAGCACACAAAAATATTTAACCT [CACACA_site8885] | 7.86 ± 0.76
52 | TATATATTTATATATTGTACACTCTTATGTAGTGTA [XGTACX_site210] | 7.48 ± 0.33
53 | ATTTTTATATTTAATACACACATAAAATCATACCAT [CACACA_site23] | 8.05 ± 0.52
54 | ATGTCAGGGAAAAAAACACACAAGAGTATGATATGT [CACACA_site2180] | 7.66 ± 0.88
55 | TATGCATATACACAAGCACACATATATATATATATA [CACACA_site8266] | 9.39 ± 0.38
56 | AAAAAAAAAAAAAAAAAAACTAATATAATAAAAATA [TGCATGCA_negctrl_site150] | 8.97 ± 0.028
57 | AAAAAAATAATATAATATTAAATCTTAGTTAATAAA [GTGCAC_negctrl_site658] | 7.08 ± 0.44
58 | TTTTTTTTTTTTTTTTCTTTTTTTTTTTTAAATAAG [XGTACX_negctrl_site418] | 8.04 ± 1.1
59 | TTTTTTTTTTTTTACACACCCAAATCACATACATAT [CACACA_site6089] | 8.62 ± 0.3
60 | TATAATAAATATACTGGTACACAAATATATATATTT [XGTACX_site7741] | 7.77 ± 0.35
61 | AACATCTTATCATCATGTACGAAGCAGTTTTATAAG [XGTACX_site2490] | 7.74 ± 0.59
62 | TGTAATTTTTTACGTTGTACATATATTAACAATATA [XGTACX_site3991] | 7.8 ± 0.2
63 | ATATTATATTTACATAGTACACTATATGTATATATA [XGTACX_site2101] | 7.85 ± 0.38
64 | TTTACACTTTTTTTTGTACACACTAAAAAGATTAAC [CACACA_site3933] | 8.05 ± 0.38
65 | AAAAAAAAAAAAAAAACACACAAGGATCAGATAGAT [CACACA_site7743] | 8.65 ± 0.6
66 | TTTTTCAGAAAAGAAACACACATATAAATATTTATA [CACACA_site7170] | 7.61 ± 0.55
67 | TGTTGTTACCTATATACACACATATAAATATTATAG [CACACA_site7180] | 7.89 ± 0.42
68 | AATATTATGATATTATGTACATATTAAAAGCACCAC [XGTACX_site6236] | 10.8 ± 0.7
69 | AGGGCATATATATATGCACACATACATATATACATG [CACACA_site9282] | 9 ± 0.33

Row | Sequence | gcPBM binding intensity (ln)
70 | TATTTTTAAAAGTTAACAGAAAAAATATAAATAAAT [GTGCAC_negctrl_site295] | 7.76 ± 0.61
71 | TGGTATATACGACACACACACATATGTATAAATATA [CACACA_site6561] | 7.99 ± 0.54
72 | TTTTCCCTTTTTTCCGCACACAATAAAATAAATAAA [CACACA_site2807] | 8.66 ± 0.099
73 | TACCATAATCAATGCACACATAACAAAATATTATTA [CACACA_site2722] | 9.77 ± 0.47
74 | TGTAATAAAATAATTAGTACACATATATGTATATTT [XGTACX_site5896] | 7.76 ± 0.41
75 | TTTATCATGAACAGAAGTACATTTATATCAATGTCT [XGTACX_site6470] | 7.5 ± 0.47
76 | ATATATATATAATGTTGTACGTTTTATTCTCCCATT [XGTACX_site8071] | 9.2 ± 0.3
77 | ATATATATATATTTTACACACAATGGAGAAAAAAAT [CACACA_site644] | 9.01 ± 0.092
78 | TCATTATATTATTCTTGTACTTATATCCTTTTTTGA [XGTACX_site5320] | 7.75 ± 0.59
79 | TAAAAGTTCACCTGTACACACATATATATCTGTACA [CACACA_site5019] | 8.11 ± 0.56
80 | AAAAAATAAAAGTGGGGTACATGTCATTATGTGCAT [XGTACX_site3753] | 8.12 ± 0.64
81 | CAAAATATTATCATGATGCACTTTACACTCTAAGGT | 9.34 ± 0.18
82 | TTTTCATTCTTTTCCTTTGATTTACAATAGTATATT [GTGCAC_negctrl_site687] | 7.72 ± 0.79
83 | AAATTAAATGTAAGCACACATAAATTATACGCATAT [CACACA_site3335] | 8.04 ± 0.54
84 | ACATTGAATAAATAATGTACATATATAATATATATT [XGTACX_site95] | 7.65 ± 0.35
85 | TTGCAGTATTTCGGAACACACAAACATAAATATGTA [CACACA_site5307] | 7.81 ± 0.37
86 | GATCTTTCACATATATATATAAAGGATATTATGGTA [CACACA_negctrl_site522] | 7.55 ± 0.57
87 | AGTAGTCTGGAGAAAAGTACACAGTATCTGGTAGCT [XGTACX_site2544] | 7.84 ± 0.55
88 | TATAATAATCCACAAGCACACACACCCACATATATA [CACACA_site8343] | 8.31 ± 0.27
89 | AAATATTATTCATTTTGTACGTATAATTTTTAATGA [XGTACX_site3509] | 7.68 ± 0.5

— the supplement of paper PMC11417369
